Experiment [1] has as its system GCC in HT29-GCC#18 cells. In words: Inhibition of ST peptide-induced calcium ion flux (cGMP assay). Type of experiment: cell-based, human. Conditions: 50 nM ST. As for the experimental part: Additionally, some antibodies were tested for their ability to inhibit the ST peptide-induced calcium ion flux in GCC-expressing cells. The cGMP assay was performed in HT29-GCC#18 cells in the presence of 50 nM ST in the presence or absence of anti-GCC antibody molecules.

Experiment [2] concerns GCC 20-mer peptides (aa 1-440). The experiment is described as follows: Epitope mapping by peptide array. It is filed as binding, human. To be noted: 20-mer peptides with 15 aa overlap, GCC aa 1-440. The text has this: Multiple strategies were initiated to identify epitopes. Peptide array. 20-mer peptides, with 15 aa overlap were generated, covering the extracellular domain (ECD) into the transmembrane domain of GCC (aa 1-440). Peptides were synthesized and provided as arrays, immobilized on glass slides. Arrays were hybridized with each of the anti-GCC antibodies to determine if linear peptides were sufficient for binding. […] The sequence, […] (SEQ ID NO:225) is spanned by these peptides. A region of overlap among the peptides is […] (SEQ ID NO:314). […] The sequence, […] (SEQ ID NO:226), and the sequence […] (SEQ ID NO:315) overlaps the two peptides.

Changes are numbered by the printed parent chain.

B1: Abx-338: Human anti-GCC SLAM mAb, IgG1,k; VH SEQ ID NO:50, VL SEQ ID NO:52 (antibody, V domains shown)
VH: QVQLQESGPGLVKPSETLSLTCTVSGGSIRSYYWSWIRQPAGKGLEWIGRIYISGRTTFNPSLKSRVTISVDTSKNQFSLKLSSVTAADTAVYFCARDRYYGYLDYWGQGTLVTVSS
VL: [letters of about 100 residues not shown]STFGQGTRLEIK
B1: in experiment [1], the “Inhibition of ST peptide-induced calcium ion flux” value is recorded as “inhibited”. Moreover, the “Peptides bound in peptide array” value in experiment [2] was “peptides 71 and 72”.

B2: Abx-106: Human anti-GCC SLAM mAb, IgG1,k; VH SEQ ID NO:243, VL SEQ ID NO:245 (antibody, V domains shown)
VH: B1 VH with G27A, R30S, S31H, T58S, F59Y, I69V, F94Y, Y100L, Y101T, L104F
VL: [letters of about 100 residues not shown]CSFGQGTKLEIK
Turning to B2, the “Peptides bound in peptide array” value in experiment [2] is “peptides 71 and 72”.

B3: Abx-012: Human anti-GCC SLAM mAb, IgG1,k; VH SEQ ID NO:239, VL SEQ ID NO:241 (antibody, V domains shown)
VH: B1 VH with G27A, R30S, S31H, T58S, F59Y, I69V, F94Y, Y100L, Y101T, L104F
VL: [letters of about 100 residues not shown]
As for B3, the “Peptides bound in peptide array” value in experiment [2] was “peptides 71 and 72”.

The values above are taken from patent publication US8785600B2, “Anti-GCC antibody molecules and related compositions and methods” (Millennium Pharmaceuticals, Inc., priority 2009, dated 2014).
